Measurements as given in the supplement of paper PMC10126150.
Sequences with one replicate were seen in a single cluster, so their values are uncertain.

Tested on: ATP
Experiment: switch fluorescence ratio, 500 uM ATP over buffer (Cy3 cluster intensity, sum of 5 cycles each) (fold (ratio)); higher = stronger signal-on switching upon ATP binding; sequences stand for … in TCGTCGGCAGCGTCAGATGTGTATAAGAGACAGTTTTTTTTTTTTTTTTTTTTTTTTT…TC
Details: aptamer strand: ATP DNA aptamer (quencher-CACCTGGGGGAGTATTGCGGAGGAAGG + anchor), 100 nM annealed; ATP concentration: 500 uM; one replicate
Procedure, shortened: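 Clusters carrying Cy3-labelled switching strands on a modified Illumina MiSeq flow-cell were annealed to 100 nM quencher-labelled ATP aptamer and imaged in selection buffer. They were imaged again after 15 min with 500 uM ATP at 22 °C, over five buffer/ATP cycles with NaOH stripping and re-annealing in between. For each cluster, the fluorescence ratio is the summed Cy3 intensity of the target cycles divided by that of the buffer cycles, averaged per switch-domain sequence. Clusters outside 100-1000 RFU were left out.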
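Further: ATP exposure 15 min at 22 °C before imaging.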

Row | Sequence | switch fluorescence ratio
1 | ATAGCGGACG | 1.03
2 | ATAGCGTACC | 1.29
3 | ATAGCTGGCC | 0.952
4 | ATAGGAGAAA | 0.991
5 | ATAGGCCGGT | 0.989
6 | ATAGGGGCGT | 0.985
7 | ATAGGTTGGA | 1
8 | ATAGTACAAG | 1.02
9 | ATAGTAGGGC | 1.08
10 | ATAGTAGGGT | 0.984
11 | ATAGTAGGTG | 0.997
12 | ATAGTATCGG | 1.01
13 | ATAGTCAGTT | 0.988
14 | ATAGTCCAGG | 1.36
15 | ATAGTGTACG | 1.04
16 | ATAGTTCCCT | 1.04
17 | ATAGTTGCT | 0.971
18 | ATAGTTGGCT | 0.965
19 | ATAGTTTTTA | 0.966
20 | ATATAACACT | 1.1
21 | ATATACCGAG | 1.11
22 | ATATACCTTT | 1.02
23 | ATATACGTCC | 1.13
24 | ATATAGAGAT | 1.03
25 | ATATAGAGGT | 0.952
26 | ATATAGAGTA | 0.955

Row | Sequence | switch fluorescence ratio
27 | ATATAGGCAC | 1.04
28 | ATATAGTAGG | 1.02
29 | ATATATGTTG | 0.991
30 | ATATATTTGG | 0.968
31 | ATATCACCCT | 1.07
32 | ATATCACGTC | 1.02
33 | ATATCAGAT | 0.984
34 | ATATCAGCCA | 0.99
35 | ATATCATTAA | 1.01
36 | ATATCATTTG | 1.01
37 | ATATCTGATA | 1.02
38 | ATATGAAGTC | 0.967
39 | ATATGACCCT | 1.07
40 | ATATGATTG | 1.04
41 | ATATGCACAC | 1.17
42 | ATATGCACGT | 1.04
43 | ATATGCGTGG | 0.989
44 | ATATGGGAAC | 0.987
45 | ATATGGTAGG | 1
46 | ATATGGTTTG | 0.967
47 | ATATGTATCT | 1.02
48 | ATATGTATGT | 1.01
49 | ATATGTCGTA | 0.991
50 | ATATGTTTTA | 1
51 | ATATTAAAA | 0.984
52 | ATATTAACCC | 1.07

Row | Sequence | switch fluorescence ratio
53 | ATATTAGAAT | 0.981
54 | ATATTAGCTC | 0.989
55 | ATATTAGTGC | 0.949
56 | ATATTCAAAG | 0.995
57 | ATATTCTATG | 0.985
58 | ATATTTAGAT | 1
59 | ATATTTAGTC | 1.01
60 | ATATTTTCTA | 0.98
61 | ATCAAAACAC | 1.06
62 | ATCAACAGAA | 1.04
63 | ATCAACGAGC | 1
64 | ATCAAGAATA | 1.05
65 | ATCAAGGATT | 0.962
66 | ATCAAGGGCA | 0.982
67 | ATCAATGT | 1.03
68 | ATCACGAGAA | 1.06
69 | ATCACGGATG | 1.01
70 | ATCAGAAAG | 1
71 | ATCAGAAATT | 0.976
72 | ATCAGAGGT | 1.03
73 | ATCAGATTTC | 1.01
74 | ATCAGGGATT | 0.996
75 | ATCAGGTTCA | 1.01
76 | ATCAGTTATA | 0.966
77 | ATCATAGCGC | 1.02
78 | ATCATCACTA | 1.01

Row | Sequence | switch fluorescence ratio
79 | ATCATCGCGG | 1.03
80 | ATCATGTAAA | 0.964
81 | ATCATTCACC | 1
82 | ATCATTCCGA | 1.14
83 | ATCATTTCGC | 0.964
84 | ATCCAGGAGC | 0.803
85 | ATCCAGGCAA | 2.34
86 | ATCCAGTAGG | 1.03
87 | ATCCAGTCAG | 0.996
88 | ATCCAGTGGC | 1.1
89 | ATCCAGTTGG | 1
90 | ATCCATGCA | 0.991
91 | ATCCATGGTC | 1.03
92 | ATCCATGTTG | 1.02
93 | ATCCCCTAGG | 4.3
94 | ATCCCGGGGT | 1.04
95 | ATCCCTTGTA | 1.04
96 | ATCCGCCTGT | 1.23
97 | ATCCGGGG | 1.06
98 | ATCCGGTCTA | 1.04
99 | ATCCGT | 1.04
100 | ATCCGTCTAT | 1.09
101 | ATCCGTTTGA | 0.977
102 | ATCCTAGAGC | 0.96
103 | ATCCTGCACT | 1.11
104 | ATCCTGTGTT | 0.974

Row | Sequence | switch fluorescence ratio
105 | ATCCTTAATG | 0.996
106 | ATCCTTACTT | 1.03
107 | ATCCTTAGAC | 0.996
108 | ATCCTTGCGT | 1.04
109 | ATCCTTTAGG | 1.05
110 | ATCCTTTGCT | 1.07
111 | ATCGAGAA | 1.03
112 | ATCGAGACGC | 1.04
113 | ATCGAGGGTT | 0.976
114 | ATCGAGTTGA | 0.963
115 | ATCGATATCC | 1.03
116 | ATCGATCAGC | 1.03
117 | ATCGCCGATG | 0.994
118 | ATCGCCGGAC | 0.978
119 | ATCGCCTACT | 1.04
120 | ATCGCGCTTG | 1.03
121 | ATCGCTACGT | 1.06
122 | ATCGGAAGTG | 0.949
123 | ATCGGACGTC | 0.945
124 | ATCGGCCGCC | 1.05
125 | ATCGGCGACG | 1.06
126 | ATCGGCGGCC | 1
127 | ATCGGCGGGT | 1.01
128 | ATCGGCTGGA | 1.02
129 | ATCGGGAGTA | 0.958
130 | ATCGGGATT | 0.994

Row | Sequence | switch fluorescence ratio
131 | ATCGGGTCAC | 0.977
132 | ATCGGTACTA | 0.996
133 | ATCGGTTATG | 0.989
134 | ATCGTACAGG | 1.08
135 | ATCGTAGAT | 0.979
136 | ATCGTAGTG | 0.972
137 | ATCGTCAGCT | 0.974
138 | ATCGTCGCTG | 0.994
139 | ATCGTGCGT | 0.972
140 | ATCGTTGCAA | 1.09
141 | ATCGTTTAGT | 1.05
142 | ATCGTTTGA | 0.971
143 | ATCTAACCAT | 1.02
144 | ATCTAACCGT | 0.977
145 | ATCTATCGAC | 1.06
146 | ATCTATGTCC | 0.997
147 | ATCTCAGATG | 1.05
148 | ATCTCTACCT | 1.24
149 | ATCTGAACT | 0.999
150 | ATCTGAATC | 1.07
151 | ATCTGAGGGC | 0.961
152 | ATCTGGCGC | 0.97
153 | ATCTGGGAGA | 0.951
154 | ATCTGGGGAT | 1.03
155 | ATCTGGGTGC | 1.14
156 | ATCTGGTCGT | 0.98

Row | Sequence | switch fluorescence ratio
157 | ATCTGGTCTT | 0.998
158 | ATCTGTCACG | 1.05
159 | ATCTGTTTAG | 0.993
160 | ATCTTAGATC | 0.992
161 | ATCTTAGATT | 1.03
162 | ATCTTATGTG | 1.03
163 | ATCTTATTGG | 1.04
164 | ATCTTCCCGT | 1.15
165 | ATCTTCTTTA | 0.955
166 | ATCTTGTAAG | 0.961
167 | ATCTTTACAA | 1
168 | ATCTTTAGAG | 0.992
169 | ATCTTTCGGT | 1.08
170 | ATGAAATTCC | 2.11
171 | ATGAACCTCG | 1.08
172 | ATGAACTCTT | 0.969
173 | ATGAAGACAA | 1.01
174 | ATGAAGAGA | 1.03
175 | ATGAAGGGCA | 0.991
176 | ATGAAGTAGT | 1.02
177 | ATGAAGTGCT | 1
178 | ATGAATACG | 1.03
179 | ATGAATTAGT | 1
180 | ATGACATCCT | 1.04
181 | ATGACATCTC | 0.985
182 | ATGACGACTT | 1.02

Row | Sequence | switch fluorescence ratio
183 | ATGACGGCTA | 0.993
184 | ATGACTAAAG | 0.975
185 | ATGACTGAAG | 0.962
186 | ATGAGCAGGA | 1.07
187 | ATGAGCGTAC | 1.45
188 | ATGAGGCTAA | 1.02
189 | ATGAGGCTGG | 0.995
190 | ATGAGGGGC | 0.924
191 | ATGAGGGTG | 1.1
192 | ATGAGGTAGC | 0.993
193 | ATGAGTGCCC | 1.03
194 | ATGAGTGGAC | 0.981
195 | ATGATAATTG | 1
196 | ATGATACGAG | 1.03
197 | ATGATACGTC | 0.953
198 | ATGATAGGCC | 1.02
199 | ATGATATACT | 1.03
200 | ATGATCAGAT | 1.01
201 | ATGATCTATA | 0.981
